Measured values from the supplement of paper PMC12067230.
The data scatter; read single values as rough.

Experiment: amyloid nucleation score relative to library mode (yeast Sup35 reporter selection) (log enrichment difference); higher = more amyloid nucleation; sequences are the first 22 residues of the Bri2 peptide extended by up to 12 random residues
Details: random library (experiment): 2;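 active = nucleation score significantly above 0 at FDR 0.05; inactive = not significantly above 0 or absent from output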
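Also: [psi-pin-] Saccharomyces cerevisiae expressing SupN fusions, induced by 100 µM Cu2SO4, selected 7 d at 30 °C without adenine and uracil, scored by deep sequencing of output versus input.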

Sequence	amyloid nucleation score
EASNCFAIRHFENKFAVETLICNGFVDRSTVMFV	0
EASNCFAIRHFENKFAVETLICDVDVVLFGSNTV	6.4
EASNCFAIRHFENKFAVETLICRNGGTCNSLYLL	inactive
EASNCFAIRHFENKFAVETLICLMDNIDFKALYF	inactive
EASNCFAIRHFENKFAVETLICFFVVCVGCWSGR	inactive
EASNCFAIRHFENKFAVETLICMSRISFRFMGSC	inactive
EASNCFAIRHFENKFAVETLICRIQHAAPYTGES	inactive
EASNCFAIRHFENKFAVETLICRNSEYNYNTHHF	3.2
EASNCFAIRHFENKFAVETLICTLRSVTNNSFCV	inactive
EASNCFAIRHFENKFAVETLICYTEDVIY	inactive
EASNCFAIRHFENKFAVETLICFEGCMKGDVSIG	4.71
EASNCFAIRHFENKFAVETLICFMCNLLKVKSGS	inactive
EASNCFAIRHFENKFAVETLICPKAFDVNLYWS	4.95
EASNCFAIRHFENKFAVETLICGWGIGQNGRAYV	3.6
EASNCFAIRHFENKFAVETLICRFVISCVNWLSW	inactive
EASNCFAIRHFENKFAVETLICPMRFNMYARLKL	0
EASNCFAIRHFENKFAVETLICNTFKSHNMVLWK	0.575
EASNCFAIRHFENKFAVETLICDGIRLFGRVMWS	inactive
EASNCFAIRHFENKFAVETLICNYLITLDLTSV	7.02

Same assay, conditions: random library (experiment): 3

Sequence	amyloid nucleation score
EASNCFAIRHFENKFAVETLICQMERRFG	0.64
EASNCFAIRHFENKFAVETLICVHVEDKMRLFVV	inactive
EASNCFAIRHFENKFAVETLICCLPYWMRKCLER	6.47
EASNCFAIRHFENKFAVETLICESRVVYYSRFSR	3.66
EASNCFAIRHFENKFAVETLICQKHKRRPARHVC	inactive
EASNCFAIRHFENKFAVETLICVNARWMLHPELV	inactive
EASNCFAIRHFENKFAVETLICGWEKGVADGRRG	inactive
EASNCFAIRHFENKFAVETLICLLTWSTVSRRCK	inactive
EASNCFAIRHFENKFAVETLICHGTFFDAMCEGS	inactive
EASNCFAIRHFENKFAVETLICCLLLSIRNSRDL	5.07
EASNCFAIRHFENKFAVETLICYSGVTMSGMERN	3.82
EASNCFAIRHFENKFAVETLICAD	inactive
EASNCFAIRHFENKFAVETLICCANGHMTQAVEV	inactive
EASNCFAIRHFENKFAVETLICQVLCVRKTGNVG	0.0846
EASNCFAIRHFENKFAVETLICGSNAGSAASKCR	1.12
EASNCFAIRHFENKFAVETLICMPNVC	5.02
EASNCFAIRHFENKFAVETLICLVYLRKWPTDDG	inactive
EASNCFAIRHFENKFAVETLICHQWPSMVRLVHA	0.64
EASNCFAIRHFENKFAVETLICDINA	inactive
EASNCFAIRHFENKFAVETLICREEIKRIGIVLS	inactive
EASNCFAIRHFENKFAVETLICKQLETEVVSWKV	0.693

Sequence	amyloid nucleation score
EASNCFAIRHFENKFAVETLICPILMRSHMAEGA	inactive
EASNCFAIRHFENKFAVETLICYQHLGLVIRWLA	0.702
EASNCFAIRHFENKFAVETLICWKLLRVSCGVLM	-0.0441
EASNCFAIRHFENKFAVETLICFLYYDDGFYDCR	inactive
EASNCFAIRHFENKFAVETLICYVKVRNVSYASS	inactive
EASNCFAIRHFENKFAVETLICRRSVDKCPHSSS	inactive
EASNCFAIRHFENKFAVETLICRSHC	inactive
EASNCFAIRHFENKFAVETLICAEGDGIYKSVMR	inactive
EASNCFAIRHFENKFAVETLICRRGFNSMCWW	inactive
EASNCFAIRHFENKFAVETLICYSPFYICSCVIC	7.37
EASNCFAIRHFENKFAVETLICNDWVW	inactive
EASNCFAIRHFENKFAVETLICPLPVQAGRVCRL	inactive
EASNCFAIRHFENKFAVETLICIAMDMRSCVRSF	inactive
EASNCFAIRHFENKFAVETLICAHHLRYRWVTWA	0.778
EASNCFAIRHFENKFAVETLICGVRG	inactive
EASNCFAIRHFENKFAVETLICMVNLRESYVLVP	inactive
EASNCFAIRHFENKFAVETLICPWQLLAAPYVRE	-0.384
EASNCFAIRHFENKFAVETLICCSGHKMYVITSP	inactive
EASNCFAIRHFENKFAVETLICPC	inactive
EASNCFAIRHFENKFAVETLICPRGTMWSCALGQ	inactive
